Measurements as given in PubChem BioAssay (Tox21).
Values joined by “and” are separate entries in the source; they are usually repeats but may differ in a detail not shown here. Equal values may be shown once. Inconclusive results, whose numbers are uncertain, are shown with a selection of clear calls. For some of these results: A potency beside an inconclusive call is a rough fit, not a confirmed value. Where a structure was tested more than once in an assay, its records may differ in their call. Active and inactive are the calls of the source. Unless noted, calls follow the shape of the dose curve; as a rule, active = well fitted curve in the direction sought with a large enough effect in the repeat runs; inconclusive = weak or mixed curves; inactive = no such curve, though single readings can be large; an effect the other way counts as inactive or inconclusive.

Key:
[1] = biological target: Peroxisome proliferator-activated receptor gamma (Homo sapiens) (UniProt P37231); test: qHTS assay to identify small molecule agonists of the peroxisome proliferator-activated receptor gamma (PPARg) signaling pathway (AID 743094; active = well fitted activation curve with a large enough effect in the signal ratio in the repeat runs, not every such curve was filed as active; inconclusive = weak or mixed curves, or effect the other way; inactive = no such curve, though single readings can be large or run the other way; the % refers to the signal ratio; as to activation: % is scaled to controls: 0 for no effect and ±100 for the full control effect); conditions: HEK293H PPARg-UAS-bla, beta-lactamase FRET ratio, 17 h
UniProt P37231, sequence (P37231 whole entry, looked up): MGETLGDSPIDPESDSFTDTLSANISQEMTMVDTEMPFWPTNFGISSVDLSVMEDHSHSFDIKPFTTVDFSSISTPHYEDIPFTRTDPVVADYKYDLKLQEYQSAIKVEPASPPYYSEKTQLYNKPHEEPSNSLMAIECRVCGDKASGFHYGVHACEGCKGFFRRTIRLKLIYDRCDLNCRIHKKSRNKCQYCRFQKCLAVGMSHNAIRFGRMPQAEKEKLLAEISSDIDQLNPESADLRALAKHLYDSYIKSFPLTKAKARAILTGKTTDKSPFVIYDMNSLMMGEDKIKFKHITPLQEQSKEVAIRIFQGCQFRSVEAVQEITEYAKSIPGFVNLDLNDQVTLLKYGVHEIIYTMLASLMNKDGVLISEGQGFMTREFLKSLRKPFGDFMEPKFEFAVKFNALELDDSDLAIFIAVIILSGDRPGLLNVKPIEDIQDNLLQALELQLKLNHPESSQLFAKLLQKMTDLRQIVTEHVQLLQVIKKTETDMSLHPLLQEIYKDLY
How it was run: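 Following 5 h plating at 37C, PPARg-bla HEK293H cells receive compound or DMSO for 17 h; fluorescence intensity is recorded after LiveBLAzer B/G loading for 1 h at room temperature.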

[2] = biological target: Peroxisome proliferator-activated receptor gamma (Homo sapiens) (UniProt P37231); test: qHTS assay to identify small molecule antagonists of the peroxisome proliferator-activated receptor gamma (PPARg) signaling pathway (AID 743191; calls by dose curve; also: nearly all actives have a fitted effect of over 30% in size; as to ratio activity, negative = inhibition: % is scaled to controls: 0 for no effect and ±100 for the full control effect); conditions: HEK293H PPARg-UAS-bla, beta-lactamase ratio, antagonist, 17 h; ratio activity, negative = inhibition: at 62.6 µM (top of the series) unless noted
How it was run: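 Beta-lactamase reporter under UAS control in HEK293H PPARg-bla cells; compound treatment 17 h at 37C. Read-out: fluorescence intensity after 1 h room-temperature incubation with LiveBLAzer B/G FRET substrate.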

[3] = qHTS assay for small molecule agonists of the antioxidant response element (ARE) signaling pathway (AID 743202; active = well fitted activation curve with a large enough effect in the signal ratio in the repeat runs, not every such curve was filed as active; inconclusive = weak or mixed curves, or effect the other way; inactive = no such curve, though single readings can be large or run the other way; the % refers to the signal ratio; as to activation: % is scaled to controls: 0 for no effect and ±100 for the full control effect); conditions: HepG2 ARE-bla reporter, beta-lactamase FRET, 16 h; activation: at 73.3 µM (top of the series) unless noted
How it was run: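 Quantitative high-throughput format in HepG2 cells bearing an integrated ARE-beta-lactamase reporter. Compound exposure lasted 16 h at 37 C, and fluorescence was read 2 h after adding LiveBLAzer B/G substrate at room temperature.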

[4] = qHTS assay for small molecule activators of the heat shock response signaling pathway - cell viability counter screen (AID 743209); conditions: HSE-bla HeLa viability, CellTiter-Glo luminescence, 5 h; activity change, negative = cytotoxicity: at 62.6 µM (top of the series); also: nearly all actives have a fitted effect of over 50% in size
How it was run: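 Counter screen for cytotoxicity in HeLa HSE-bla reporter cells. Treatment was 5 h at 37 C; viability was detected by luminescent ATP assay (CellTiter-Glo) in the same wells as the beta-lactamase read.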

[5] = qHTS assay to identify small molecule agonists of the peroxisome proliferator-activated receptor delta (PPARd) signaling pathway - cell viability counter screen (AID 743211); conditions: PPARd-bla HEK293H viability, CellTiter-Glo luminescence, 17 h; activity change, negative = cytotoxicity: at 62.6 µM (top of the series); also: nearly all actives have a fitted effect of over 55% in size
How it was run: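 PPARd-bla HEK293H cells (3000/well) were pre-incubated 5 h at 37 C, then exposed to compound for 17 h at 37 C. After 2 h with LiveBLAzer substrate, CellTiter-Glo was added to the same wells; luminescence read after 30 min at room temperature.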

[6] = biological target: Peroxisome proliferator-activated receptor delta (Homo sapiens) (UniProt Q03181); test: qHTS assay to identify small molecule agonists of the peroxisome proliferator-activated receptor delta (PPARd) signaling pathway (AID 743212; calls by dose curve; as to activation: % is scaled to controls: 0 for no effect and ±100 for the full control effect); conditions: HEK293H PPARd-UAS-bla, beta-lactamase FRET ratio, 17 h; for Potency: activation: at 62.6 µM (top of the series) unless noted
UniProt Q03181, sequence (Q03181 whole entry, looked up): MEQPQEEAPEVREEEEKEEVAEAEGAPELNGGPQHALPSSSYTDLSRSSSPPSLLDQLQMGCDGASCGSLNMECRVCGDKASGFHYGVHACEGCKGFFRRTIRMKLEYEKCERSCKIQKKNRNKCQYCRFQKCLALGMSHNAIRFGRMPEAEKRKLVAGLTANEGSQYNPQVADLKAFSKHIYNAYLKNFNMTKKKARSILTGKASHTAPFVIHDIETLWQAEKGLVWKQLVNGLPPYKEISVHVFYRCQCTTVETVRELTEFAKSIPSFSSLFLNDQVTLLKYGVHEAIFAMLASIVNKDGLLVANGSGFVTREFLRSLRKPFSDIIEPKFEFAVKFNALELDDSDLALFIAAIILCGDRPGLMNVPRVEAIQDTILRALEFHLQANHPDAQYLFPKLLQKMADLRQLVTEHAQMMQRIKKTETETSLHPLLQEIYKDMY
How it was run: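 HEK293H PPARd-bla cells; 5 h preincubation 37 C/5% CO2; compound (DMSO) 37 C; LiveBLAzer B/G FRET substrate 2 h RT; fluorescence intensity.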

[7] = biological target: Bile acid receptor (Homo sapiens) (UniProt Q96RI1); test: qHTS assay to identify small molecule antagonists of the farnesoid-X-receptor (FXR) signaling pathway (AID 743217; active = well fitted inhibition curve with a large enough effect in the signal ratio in the repeat runs, not every such curve was filed as active; inconclusive = weak or mixed curves, or effect the other way; inactive = no such curve, though single readings can be large or run the other way; the % refers to the signal ratio); conditions: HEK293T FXR-UAS-bla, beta-lactamase ratio, CDCA-stimulated, 16 h; activity change, negative = inhibition: at 62.6 µM (top of the series) unless noted
UniProt Q96RI1, sequence (Q96RI1 whole entry, looked up): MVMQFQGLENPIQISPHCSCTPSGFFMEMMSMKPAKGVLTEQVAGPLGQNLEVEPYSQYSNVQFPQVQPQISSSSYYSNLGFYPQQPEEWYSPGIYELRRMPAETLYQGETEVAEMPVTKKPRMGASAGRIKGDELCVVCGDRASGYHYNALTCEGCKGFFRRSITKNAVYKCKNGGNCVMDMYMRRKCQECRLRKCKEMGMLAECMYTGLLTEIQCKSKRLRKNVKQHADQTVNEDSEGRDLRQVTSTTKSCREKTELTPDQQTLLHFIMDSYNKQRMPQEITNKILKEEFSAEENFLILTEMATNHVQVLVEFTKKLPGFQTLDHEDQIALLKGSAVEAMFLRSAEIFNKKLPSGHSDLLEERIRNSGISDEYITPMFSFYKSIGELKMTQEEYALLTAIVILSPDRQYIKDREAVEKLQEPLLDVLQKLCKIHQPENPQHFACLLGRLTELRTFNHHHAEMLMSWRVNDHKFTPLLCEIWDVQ
How it was run: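 In this cell-based antagonist screen, inhibition of CDCA-driven (50 uM final) UAS-beta-lactamase expression in HEK 293T cells was measured by FRET fluorescence following 16 h compound exposure at 37 °C.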

[8] = qHTS assay to identify small molecule agonists of the farnesoid-X-receptor (FXR) signaling pathway - cell viability counter screen (AID 743218); conditions: FXR-bla HEK293T viability, CellTiter-Glo luminescence, 16 h; viability change, negative = cytotoxic: at 62.6 µM (top of the series) unless noted; also: nearly all actives have a fitted effect of over 45% in size
How it was run: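 After 16 h at 37 C with test compounds, FXR-bla HEK 293T cells were given LiveBLAzer B/G substrate for 2 h at RT and then CellTiter-Glo; luminescence was taken after 30 min.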

[9] = biological target: Bile acid receptor (Homo sapiens) (UniProt Q96RI1); test: qHTS assay to identify small molecule agonists of the farnesoid-X-receptor (FXR) signaling pathway (AID 743220; active = well fitted activation curve with a large enough effect in the signal ratio in the repeat runs, not every such curve was filed as active; inconclusive = weak or mixed curves, or effect the other way; the % refers to the signal ratio); conditions: HEK293T FXR-UAS-bla, beta-lactamase FRET ratio, 16 h; activation: at 62.6 µM (top of the series) unless noted
How it was run: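 Beta-lactamase reporter under UAS control in GeneBLAzer FXR HEK 293T cells (5000/well) measured with LiveBLAzer FRET substrate after 2 h at room temperature. Compound exposure lasted 16 h at 37C.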

[10] = qHTS assay to identify small molecule antagonists of the farnesoid-X-receptor (FXR) signaling pathway - cell viability counter screen (AID 743221; active = well fitted cell-killing curve with a large enough effect in the repeat runs, not every such curve was filed as active; inconclusive = weak or mixed curves, or effect the other way; inactive = no such curve, though single readings can be large or run the other way; also: nearly all actives have a fitted effect of over 50% in size); conditions: FXR-bla HEK293T viability, CellTiter-Glo luminescence, 16 h; activity change, negative = cytotoxicity: at 62.6 µM (top of the series)
How it was run: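 GeneBLAzer FXR-UAS-bla HEK 293T cells, compound plus chenodeoxycholic acid (50 uM final), 16 h at 37 C. CellTiter-Glo added to the same wells after the beta-lactamase read; luminescence read after 30 min at room temperature as viability.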

[11] = biological target: Vitamin D3 receptor (Homo sapiens) (UniProt P11473); test: qHTS assay to identify small molecule agonists of the vitamin D receptor (VDR) signaling pathway (AID 743222; calls by dose curve); conditions: HEK293T VDR-UAS-bla, beta-lactamase FRET ratio, 16 h; activation: at 63.5 µM (top of the series) unless noted
UniProt P11473, sequence (P11473 whole entry, looked up): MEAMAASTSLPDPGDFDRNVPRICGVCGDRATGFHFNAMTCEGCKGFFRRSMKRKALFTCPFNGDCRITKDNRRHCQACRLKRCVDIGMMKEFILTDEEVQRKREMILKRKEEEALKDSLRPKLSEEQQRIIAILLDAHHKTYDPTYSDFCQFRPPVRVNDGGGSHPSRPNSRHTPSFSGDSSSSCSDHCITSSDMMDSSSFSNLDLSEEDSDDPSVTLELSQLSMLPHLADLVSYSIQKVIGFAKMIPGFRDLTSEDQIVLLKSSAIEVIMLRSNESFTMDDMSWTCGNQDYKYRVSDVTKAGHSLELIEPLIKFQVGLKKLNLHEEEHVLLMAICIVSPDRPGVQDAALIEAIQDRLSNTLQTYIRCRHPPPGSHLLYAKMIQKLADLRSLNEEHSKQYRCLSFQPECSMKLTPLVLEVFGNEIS
How it was run: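 VDR-bla cells were seeded, left 4 h, treated with compounds in DMSO for 16 h, incubated 2 h at RT with B/G FRET substrate, and read for fluorescence.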

[12] = qHTS assay for small molecule activators of the heat shock response signaling pathway (AID 743210; active = well fitted activation curve with a large enough effect in the signal ratio in the repeat runs, with a control signal flat, not every such curve was filed as active; inconclusive = weak or mixed curves; the % refers to the signal ratio); conditions: HeLa HSE-bla reporter, beta-lactamase ratio, 5 h; activation: at 62.6 µM (top of the series)
How it was run: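 HeLa HSE-bla cells, overnight plating; cpd in DMSO 5 h, 37 C; LiveBLAzer B/G FRET substrate 2.5 h RT; fluorescence intensity read.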

[13] = qHTS assay to identify small molecule antagonists of the peroxisome proliferator-activated receptor gamma (PPARg) signaling pathway - cell viability counter screen (AID 743194); conditions: PPARg-bla HEK293H viability, CellTiter-Glo luminescence, 17 h, co-treated with 50 nM rosiglitazone; activity change, negative = cytotoxicity: at 62.6 µM (top of the series); also: nearly all actives have a fitted effect of over 55% in size
How it was run: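 Viability was measured as CellTiter-Glo luminescence in GeneBLAzer PPARg UAS-bla HEK293H cells. These cells had been exposed 17 h at 37 C to compounds together with rosiglitazone at 50 nM final, with the beta-lactamase readout taken in the same wells.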

[14] = qHTS assay for small molecule agonists of the antioxidant response element (ARE) signaling pathway - cell viability counter screen (AID 743203; calls by dose curve; also: nearly all actives have a fitted effect of over 55% in size); conditions: ARE-bla HepG2 viability, CellTiter-Glo luminescence, 16 h; viability change, negative = cytotoxic: at 73.3 µM (top of the series)
How it was run: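 Compounds in DMSO were pinned onto ARE-bla HepG2 cells plated 5 hrs earlier at 2,000 cells/well. Sixteen hours later at 37C/5% CO2, CellTiter-Glo was added and luminescence measured after 30 min at room temperature.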

[15] = qHTS assay to identify small molecule antagonists of the peroxisome proliferator-activated receptor delta (PPARd) signaling pathway - cell viability counter screen (AID 743213); conditions: PPARd-bla HEK293H viability, CellTiter-Glo luminescence, 17 h; viability change, negative = cytotoxic: at 62 µM (top of the series) unless noted; also: nearly all actives have a fitted effect of over 50% in size
How it was run: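 Cytotoxicity counter screen: CellTiter-Glo luminescence read 30 min after addition, in the same wells as the reporter assay. There, PPARd UAS-bla HEK293H cells (3000/well) were treated 17 h at 37 C with compound and 300 nM L165041.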

[16] = biological target: Vitamin D3 receptor (Homo sapiens) (UniProt P11473); test: qHTS assay to identify small molecule antagonists of the vitamin D receptor (VDR) signaling pathway (AID 743223; active = well fitted inhibition curve with a large enough effect in the signal ratio in the repeat runs, not every such curve was filed as active; inconclusive = weak or mixed curves, or effect the other way; inactive = no such curve, though single readings can be large or run the other way; the % refers to the signal ratio); conditions: VDR-UAS-bla HEK293T, beta-lactamase FRET ratio, 16 h; activity change, negative = inhibition: at 61 µM (top of the series) unless noted
How it was run: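 VDR-bla cells were treated with compound plus 3 nM final 1alpha,25-dihydroxyvitamin D3 for 16 h at 37C. Beta-lactamase reporter read by B/G FRET substrate fluorescence after 2 h at room temperature. qHTS format.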

[17] = biological target: Peroxisome proliferator-activated receptor delta (Homo sapiens) (UniProt Q03181); test: qHTS assay to identify small molecule antagonists of the peroxisome proliferator-activated receptor delta (PPARd) signaling pathway (AID 743215; active = well fitted inhibition curve with a large enough effect in the signal ratio in the repeat runs, not every such curve was filed as active; inconclusive = weak or mixed curves, or effect the other way; inactive = no such curve, though single readings can be large or run the other way; the % refers to the signal ratio;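 also: cells stimulated with agonist L165041 at 300 nM final during compound exposure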); conditions: HEK293H PPARd-UAS-bla, beta-lactamase FRET ratio, antagonist, 17 h; ratio activity, negative = inhibition: at 62 µM (top of the series) unless noted
How it was run: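 With L165041 present at 300 nM final, compounds were incubated 17 h at 37 C on PPARd UAS-bla HEK293H cells. A FRET-based beta-lactamase substrate was then applied for 2 h at room temperature and fluorescence intensity recorded.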

[18] = qHTS assay to identify small molecule that activate the aryl hydrocarbon receptor (AhR) signaling pathway - cell viability counter screen (AID 743086); also: nearly all actives have a fitted effect of over 45% in size
How it was run: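 Cytotoxicity counter screen: CellTiter-Fluor signal (30 min, 37 C) in 4000 HepG2 cells/well carrying the DRE-luciferase reporter, following 24 h compound exposure at 37 C.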

[19] = activation: at 57 µM (top of the series) unless noted
Potency is read from the fitted curve at half-maximal effect; tags tell the direction and shape of the fitted curve or compound fluorescence and quenching.

CCCCCCCCCCCO
active: Potency [4] 43.6 µM | Potency [5] 43.6 µM
inactive: activation ([1]; at 78.9 µM (top of the series)) 5.86%
inconclusive: activation [1, 19] 12.2% | ratio activity, negative = inhibition [2] -12.8% | Potency [3] 54.5 µM [falling, partial curve] | activation ([6]; at 62.6 µM (top of the series)) 24.6% | activation ([6]; at 81.1 µM (top of the series)) 5.83% | Potency [7] 56.3 µM [inhibitor, single point] and 61.6 µM [inhibitor, partial curve, poor fit] | Potency [8] 61.6 µM [cytotoxic, single point] | Potency [9] 43.6 µM [falling, partial curve, poor fit] | Potency [10] 54.9 µM [falling, single point] | Potency [11] 49 µM

CC(C)CCCCCCCCCCCCCCC(=O)O
inconclusive: Potency [1, 19] 9.77 µM [falling, partial curve, poor fit] | Potency [2] 17.4 µM [activator, partial curve] | Potency [12] 29.7 µM | Potency [5] 17.4 µM [cytotoxic, partial curve, poor fit] | Potency [6] 43.6 µM [rising, partial curve]
inactive: Potency [3] | Potency [8]
active: Potency [4] 24.5 µM

C=C[C@](C)(O)CC[C@@H]1[C@@]2(C)CCCC(C)(C)[C@@H]2CC[C@@]1(C)O
inconclusive: activation [1, 19] 0.259% | Potency [2] 61.6 µM [inhibitor] | Potency [3] 77 µM [falling, single point] | Potency [8] 54.9 µM [cytotoxic, single point] | Potency [9] 61.6 µM [falling, single point] | Potency [10] 49 µM [falling, partial curve, poor fit] | Potency [11] 61.6 µM | Potency [16] 49 µM [rising, partial curve]
active: Potency [13] 49 µM | Potency [14] 77 µM | Potency [15] 34.7 µM | Potency [7] 49 µM

Nc1ccc(C(=O)Nc2ccccc2N)cc1
inactive: Potency [4] | Potency [6] | Potency [16]
active: Potency [1, 19] 9.52 µM
inconclusive: Potency [2] 2.37 µM [activator, full curve] | Potency [3] 7.5 µM [rising, partial curve] | Potency [14] 10.6 µM [cytotoxic, partial curve, poor fit] | Potency [15] 23.7 µM [cytotoxic, partial curve, poor fit] | ratio activity, negative = inhibition [17] -10.1% | Potency [8] 15 µM [cytotoxic, full curve, poor fit] | activation [11] 6.66%

CC(C)Nc1ccccc1
inactive: Potency [1, 19]

C/C=C/C(=O)CCCC
inconclusive: activation [3] 6.85% | Potency [6] 21.9 µM [rising, single point] | Potency [15] 61.6 µM [rising, partial curve, poor fit] | Potency [8] 3.47 µM [rising, partial curve] | Potency [11] 4.36 µM [rising, full curve, poor fit]
inactive: Potency [18] | Potency [17]

CC1=NN(c2ccc(S(=O)(=O)O)cc2)C(=O)C1N=Nc1ccccc1 (stereo unspecified)
inconclusive: Potency [18] 30.6 µM [falling, partial curve] | Potency [3] 68.6 µM [rising, single point] | activity change, negative = inhibition [16] -18.6%
inactive: Potency [5]

O=C(O)Cc1ccc(-c2ccccc2)cc1
inactive: Potency [16]
inconclusive: Potency [1, 19] 10.2 µM [activator, partial curve, poor fit] | ratio activity, negative = inhibition [2] -3.76% | Potency [13] 7.5 µM [rising, partial curve, poor fit] | activation [3] 27.8%

CCc1c(C(=O)NN2CCCCC2)nn(-c2ccc(Cl)cc2Cl)c1-c1ccc(Br)cc1
active: Potency [5] 12.3 µM | Potency [8] 24.5 µM | Potency [10] 24.5 µM
inconclusive: Potency [1, 19] 6.92 µM [rising, partial curve] | Potency [2] 3.47 µM [rising, partial curve] | Potency [13] 34.7 µM [cytotoxic, partial curve, poor fit] | Potency [3] 12.2 µM [rising, full curve, poor fit] | Potency [14] 27.3 µM [cytotoxic, partial curve] | activation [12] 9.63% | Potency [6] 21.9 µM [rising, partial curve] | Potency [15] 27.5 µM [cytotoxic, partial curve] | Potency [17] 19.5 µM | Potency [7] 43.6 µM [rising, partial curve] | Potency [9] 17.4 µM [rising, partial curve] | Potency [11] 43.6 µM [rising, partial curve]
